Data taken from PubChem BioAssay AID493208 (National Center for Advancing Translational Sciences (NCATS), 2011).
Screen size: about 44,000 compounds; about 340 (0.77%) were called active. Roughly 5% stayed inconclusive and do not appear here. The call rests on the fitted dose curve; in most records, active means well fitted inhibition curve with a large enough effect; inconclusive means small, poorly fitted or top-dose-only effect; inactive means flat fitted curve, though single readings scatter. Some of the results follow.

Assay: Acumen qHTS Assay for Inhibitors of the mTORC1 Signaling Pathway in MEF (Tsc2-/-, p53-/-) Cells: Sytravon;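 further: plate controls were DMSO for no effect and rapamycin for full effect; nearly all actives have a fitted effect of over 50% in size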
Details: phospho-rpS6 immunofluorescence/PI, 24 h; series mostly up to 38.3 µM; activity change, negative = inhibition: at the top concentration
How it was run: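 Tsc2-/-, p53-/- MEFs (empty-vector stable line) in DMEM + 10% FBS were treated with compounds 24 h at 37 degree Celsius, fixed, and immunostained for phospho-rpS6 (Alexa-488) with propidium iodide counterstain. Laser-scanning cytometry gave % positive cells, normalized against 7.5 nM rapamycin and DMSO.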

Activity change, negative = inhibition, inactive:
Cn1c(=O)c2c(-c3ccccc3)n3c(c2n(C)c1=O)C(c1ccc([N+](=O)[O-])cc1)Nc1ccccc1-3 (stereo unspecified) -8.14%
COc1ccc(S(=O)(=O)NCCc2sc(-c3cccnc3)nc2C)cc1 -5.24%
O=C(NC1CC(=O)N(c2ccc(F)cc2)C1)c1ccc(S(=O)(=O)N2CCOCC2)cc1 (stereo unspecified) -3.81%
Cc1ccc(-n2ncc3c(Nc4ccc5c(c4)OCCO5)ncnc32)cc1Cl 0%
Cc1ccc(C(=O)c2oc3ccccc3c2NC(=O)c2cc(-c3ccccc3)on2)cc1 -0.372%
CCOCCCN1C(=O)CN(C2CCCCCC2)C(=O)C1c1ccc(OCC)c(OC)c1 (stereo unspecified) 5.51%
CCCCN(C)S(=O)(=O)c1ccc(C(=O)Nc2sc3c(c2C(=O)OCC)CCN(C(C)C)C3)cc1 -2.55%
CCSc1nc(-c2ccccc2)nc2c1Cc1c(CO)cnc(C)c1O2 -4.34%
CCOC(=O)C1CCN(C(=O)C2CCN(S(=O)(=O)c3c(C)noc3/C=C/c3ccc(C)cc3)CC2)CC1 -7.22%
COc1cc(OC)cc(C(=O)Nc2ccc3c(c2)CCCN3C(=O)c2cccs2)c1 -3.4%
CCOC(=O)c1[nH]c(C)c(CCC(=O)N2CCN(c3ccc(OC)cc3)CC2)c1C -0.424%
COc1ccc(NC(=O)c2cccc3c(=O)c4c([nH]c23)CCCC4)cc1 -0.767%
O=C(O)CCC(=O)N1CCc2cc(S(=O)(=O)NCc3ccc(F)cc3)ccc21 -0.183%
Cc1ccc(C(C)C)c(OCC(=O)Nc2ccc3c(c2)nc(CCNC(=O)c2ccco2)n3C)c1 3.7%
Cc1cc(C)cc(NC(=O)CN2C(=O)CSc3ccc(S(=O)(=O)N4CCCC4)cc32)c1 -2.51%
CCOc1ccc(NC(=O)Cn2c(=O)n(Cc3ccccc3)c(=O)c3sc4ccccc4c32)cc1 1.14%
CCOc1ccc(NC(=O)c2c(NC(=O)c3cccc(C)c3)sc3c2CCC3)cc1 -7.78%
CC1=C(c2ccc(C(C)C)cc2)S(=O)(=O)N=C1N1CCC(C(=O)NCc2ccco2)CC1 -13.1%
Cc1nn(CC(=O)N2CCN(c3ccccc3)CC2)c(=O)c2cc3cc(F)ccc3n12 -9.5%
CCOC(=O)c1c(NC(=O)CSc2cn(CCNC(=O)c3ccccc3OC)c3ccccc23)sc2c1CCCC2 2.12%
COc1ccccc1N1CCN(S(=O)(=O)CCNC(=O)COc2ccc(F)cc2)CC1 -1.02%
Cc1ccc(CNC(=O)Cn2c(=O)cc(-c3ccccc3)c3c(C)nn(C)c32)cc1 -0.726%
CCc1ccc(NC(=O)CC2C(=O)N(c3ccc(OC)cc3)C(=O)N2Cc2ccc(OC)cc2)cc1 (stereo unspecified) -1.62%
Cc1c(C(=O)NCCc2ccccc2)cccc1-n1cnc2cccnc21 -4.52%
COc1ccc(CCNc2ncnc3c2c(-c2ccccc2)cn3-c2cccc(Cl)c2)cc1OC -7.36%
Cc1cc(=O)n(Cc2ccc(F)cc2Cl)c2c1c(C)nn2-c1ccccc1 -10.3%
COc1ccccc1CNC(=O)C1CCN(S(=O)(=O)c2c(C)noc2/C=C/c2cccs2)CC1 0.881%
CCn1c(=O)c2sccc2n2c(CCCC(=O)N3CCN(c4cc(C)ccc4C)CC3)nnc12 -2.59%
Cc1ccn2c(=O)c(C(=O)NCCc3ccc(S(N)(=O)=O)cc3)c(O)nc2c1 -3.82%
Cc1ccc(NCc2ccccc2-c2nnc(-c3ccccc3Cl)o2)cc1Cl 0.159%
COc1ccc(N2C(=O)CSC23C(=O)N(CC(=O)NCc2ccccc2)c2ccccc23)cc1 (stereo unspecified) -16%
CS(=O)(=O)NCCc1csc2nc(-c3ccccc3)nn12 1.15%
COc1ccc(NC(=O)NCc2cccn2Cc2ccc(F)cc2)cc1OC -1.13%
Cc1cc(Nc2ccccc2Cl)n2nc(-c3ccco3)nc2n1 8.41%
COc1cccc(NC(=O)N(Cc2cn(C)c3ccccc23)C2CCCCC2)c1 -2.22%
Cc1nc2ccn(Cc3cccnc3)c(=O)c2cc1C(=O)NCc1ccc(Cl)cc1 2.27%
COc1ccccc1CNC(=O)CCCn1nc(C)c2c(C)n(-c3ccc(C)cc3)nc2c1=O -0.589%
Cc1ccc2onc(CC(=O)Nc3cc(F)ccc3F)c2c1 4.05%
Cc1ccc(-c2cc(C(F)(F)F)n3nc(C(=O)Nc4sc5c(c4C#N)CCC(C)C5)cc3n2)cc1 (stereo unspecified) 3.25%
O=C(CSc1nnc2scc(-c3ccc(Cl)cc3)n12)Nc1ccccc1F 3.05%
COC(=O)c1c(SC)nc2ccccc2c1OCc1ccc(C)cc1C -6.8%
COc1cc(C(=O)Nc2ccc(Cl)c(-c3nc4ncccc4o3)c2)cc(OC)c1OC 3.54%
CC(CNC(=O)c1ccc(CSc2nc3ccncc3n2Cc2cccc(F)c2)cc1)c1ccccc1 (stereo unspecified) -0.246%
CCOc1cccc(CC(=O)N2CCc3c([nH]c4ccccc34)C2c2ccc(C)cc2)c1OCC (stereo unspecified) 12%
Cc1ccc(C)c(-c2nn(CC(=O)Nc3cc(F)ccc3F)c(=O)c3c2CCCC3)c1 -0.734%
COc1ccc(C(=O)Nc2ccc3c(c2)N(C2CCCC2)C(=O)c2ccccc2S3)cc1OC -4.75%
O=C(NCCc1ccccc1)C(=O)NCC(c1cccnc1)N1CCN(c2ccccc2)CC1 (stereo unspecified) -2.87%
Cc1cccc2c1-c1sc(C(=O)N3CCN(c4ccc(F)cc4)CC3)cc1CO2 -2.78%
CC(=O)c1ccc(N2CCN(S(=O)(=O)c3cc(-c4onc(C)c4C)ccc3C)CC2)cc1 -14.4%
Cc1ccccc1CNC(=O)CCCn1c(=O)c2cccn2c2ccccc21 -1.57%
COCCNC(=O)CN1C(=O)COc2ccc(S(=O)(=O)N3CCOCC3)cc21 0.432%
C=Cc1ccc(CSc2nc(-c3ccccc3C)nc3c2Cc2c(CO)cnc(C)c2O3)cc1 -7.04%
CCn1cc(C(=O)OCC(=O)Nc2cccc(Cl)c2C)c(=O)c2ccc(C)nc21 -2.34%
CCc1ccccc1N(C)C(=O)Nc1cn(CC(C)C)c(=O)c2ccccc12 4.87%
CCOc1ccc(CNC(=O)CCn2c(=O)c3cccn3c3cccnc32)cc1 3.26%
O=C(CSc1nc(=O)n(Cc2ccco2)c2c1CCC2)NCc1ccccc1Cl -9.02%
CCOc1ccc(N2CC(NC(=O)c3ccc(S(=O)(=O)N4CCOCC4)cc3)CC2=O)cc1 (stereo unspecified) 0.503%
N#Cc1ccc(NC(=O)COCc2cc(-c3ccc4c(c3)OCO4)on2)cc1 -11.5%
COC(=O)c1scc(-c2ccc(C)cc2)c1S(=O)(=O)Nc1ccc(OC(F)(F)F)cc1 -2.37%
Cc1cc(=O)n2nc(N3CCC(C(=O)NCCCOC(C)C)CC3)sc2n1 -6.9%
O=C(CC1NCCNC1=O)Nc1ccc(F)c(Cl)c1 (stereo unspecified) 0.56%
O=C(CSc1nnc(CNC(=O)c2ccccc2)n1-c1ccc(F)cc1)Nc1ccccc1F -7.42%
Cc1nn(-c2ccc(F)cc2)c(-n2cccc2)c1C(=O)N1CCCCC1C (stereo unspecified) -0.65%
COc1ccc(Nc2ncc(C(=O)Nc3ccc(F)cc3F)c3ccccc23)cc1 1.09%
CCOCCCn1c(SCC(=O)Nc2ccc(F)cc2)nc2c(sc3ccccc32)c1=O -0.247%
CCC(C(=O)Nc1cc(-c2cn3cccnc3n2)ccc1C)c1ccccc1 (stereo unspecified) -10.2%
CCCCNS(=O)(=O)c1ccc(NC(=O)c2c(-c3ccccc3)noc2C)cc1 3.15%
CCc1cccc(NC(=O)Cn2c(-c3ccc(F)cc3)cc(C(C)=O)c2C)c1 -0.0905%
O=C(c1ccc2c(c1)N(Cc1ccccc1Cl)C(=O)c1ccccc1S2)N1CCCC1 1.07%
Nc1nc2nc(-c3ccccc3)cc(=O)n2[nH]1 3.55%
Cc1ccc(NC(=O)C2CCN(S(=O)(=O)c3ccc4c(c3)CCCC(=O)N4)CC2)c(Br)c1 -6.88%
COc1ccc(NC(=O)CN2CCCN(Cc3ccccc3)S2(=O)=O)cc1 -0.647%
Cc1cccc(NS(=O)(=O)c2ccc3c(c2)n(C)c(=O)n3C)c1C -19.2%
Fc1ccc(CNc2nc(-c3ccc(Cl)cc3)cc(C(F)(F)F)n2)cc1 -1.86%
O=C(CSc1nc2ccccc2nc1Cc1ccc(Cl)cc1)N1CCCCC1 0%
O=c1oc2ccccc2cc1-c1nc(-c2cccc(Cl)c2)cs1 -9.67%
COc1ccccc1N1CCN(c2ncc3c(n2)CCN(Cc2ccc(C)s2)C3)CC1 0%
COc1ccc(Cl)cc1NC(=O)CSc1nc(-c2cccs2)cc(C(F)(F)F)n1 12.9%
Cc1ccc(Cl)cc1N1CCN(C(=O)c2sc3nc4n(c(=O)c3c2C)CCC4)CC1 -14.8%
CCN(CC)C(=O)Cn1cc(SCC(=O)Nc2cc(OC)ccc2OC)c2ccccc21 -13.7%
CN(C)CCNC(=O)c1ccc2nc(Cc3ccccc3)oc2c1 1.22%
COc1ccc(Cl)cc1NC(=O)CSc1cc(C)[nH]c(=O)n1 -7.75%
Cc1cccn2c(=O)cc(CSc3nnc(NC(=O)C(C)C)s3)nc12 -4.77%
CCC(CC)C(=O)Nc1ccc2nc(SCC(=O)N3CCOCC3)sc2c1 -0.148%
O=C(NCc1ccc(Cl)cc1)C1CCN(S(=O)(=O)c2ccc(F)cc2)CC1 11.5%
CSc1ccc(CCNC(=O)c2c(C)nn(-c3ccc(F)cc3)c2-n2cccc2)cc1 0%
COc1ccc(C(=O)NCC(c2ccc(N(C)C)cc2)N2CCOCC2)cc1 (stereo unspecified) -12.2%
Cc1ccc(CSc2nc3ccc(NC(=O)CC(C)C)cc3s2)cc1 -0.201%
CCC(C)n1c(SCc2ccc(F)cc2Cl)nc2ccsc2c1=O (stereo unspecified) -2.58%
CCOC(=O)c1noc2ncn(Cc3ccc([N+](=O)[O-])cc3)c(=O)c12 -18%
CCC(Oc1ccccc1)C(=O)Nc1cccc(OCc2cc(=O)n3cccc(C)c3n2)c1 (stereo unspecified) 2.42%
Cc1c(C)c2c(cc(C)c3c(-c4ccc(Br)cc4)coc32)oc1=O -1.46%
Cc1ccc(CSc2nnc([C@@H](N)C(C)C)o2)cc1 -14.6%
CC(=O)c1ccc(NC(=O)Cn2c(=O)cc(C)c3c(C)nn(-c4cccc(F)c4)c32)cc1 -12%
CCOC(=O)c1c(C)[nH]c(C)c1S(=O)(=O)NCC(=O)Nc1cccc(SC)c1 3.97%
COc1cccc(NC(=O)CSc2nc(C)c(Cc3ccccc3)c(=O)[nH]2)c1 -0.255%
